# According to the supplement of paper PMC8728848:
# Some of the results follow.
# B1: FliC (Pseudomonas aeruginosa), P72151 (protein)
# chain: MALTVNTNIASLNTQRNLNASSNDLNTSLQRLTTGYRINSAKDDAAGLQISNRLSNQISGLNVATRNANDGISLAQTAEGALQQSTNILQRIRDLALQSANGSNSDADRAALQKEVAAQQAELTRISDTTTFGGRKLLDGSFGTTSFQVGSNAYETIDISLQNASASAIGSYQVGSNGAGTVASVAGTATASGIASGTVNLVGGGQVKNIAIAAGDSAKAIAEKMDGAIPNLSARARTVFTADVSGVTGGSLNFDVTVGSNTVSLAGVTSTQDLADQLNSNSSKLGITASINDKGVLTITSATGENVKFGAQTGTATAGQVAVKVQGSDGKFEAAAKNVVAAGTAATTTIVTGYVQLNSPTAYSVSGTGTQASQVFGNASAAQKSSVASVDISTADGAQNAIAVVDNALAAIDAQRADLGAVQNRFKNTIDNLTNISENATNARSRIKDTDFAAETAALSKNQVLQQAGTAILAQANQLPQAVLSLLR
# Columns and labels:
# Test in all cases: glycan array binding signal (z-score within array); higher = stronger binding
# Details in all cases: glycan notation: IUPAC condensed, linker removed
# [1] = molecular target: Neu5Ac(a2-6)GlcNAc(b1-4)GlcNAc(b1-4)GlcNAc
# Outline: (§1)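 The binding signal is a Z-score computed within each array. Data were drawn from 3228 arrays in the Consortium for Functional Glycomics database, restricted to those with a known protein sequence. Scores were averaged over arrays of the same protein sequence at different concentrations or buffers, and over linkers, and negative values can be taken as non-binding.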
# Neu5Ac(a2-8)Neu5Ac = molecular target: Neu5Ac(a2-8)Neu5Ac
# Outline: as §1
# [2] = molecular target: Neu5Ac(a2-8)Neu5Ac(a2-3)Gal(b1-3)GalNAc(b1-4)[Neu5Ac(a2-3)]Gal(b1-4)Glc
# Outline: as §1
# [3] = molecular target: Neu5Ac(a2-8)Neu5Ac(a2-3)Gal(b1-3)GalNAc(b1-4)[Neu5Ac(a2-8)Neu5Ac(a2-3)]Gal(b1-4)Glc
# Outline: as §1
# [4] = molecular target: Neu5Ac(a2-8)Neu5Ac(a2-3)Gal(b1-4)Glc
# Outline: as §1
# [5] = molecular target: Neu5Ac(a2-8)Neu5Ac(a2-3)Gal(b1-4)GlcNAc
# Outline: as §1
# [6] = molecular target: Neu5Ac(a2-8)Neu5Ac(a2-3)[Gal(b1-3)GalNAc(b1-4)]Gal(b1-4)Glc
# Outline: as §1
# [7] = molecular target: Neu5Ac(a2-8)Neu5Ac(a2-3)[GalNAc(b1-4)]Gal(b1-4)Glc
# Outline: as §1
# [8] = molecular target: Neu5Ac(a2-8)Neu5Ac(a2-8)Neu5Ac
# Outline: as §1
# [9] = molecular target: Neu5Ac(a2-8)Neu5Ac(a2-8)Neu5Ac(a2-3)Gal(b1-4)Glc
# Outline: as §1
# [10] = molecular target: Neu5Ac(a2-8)Neu5Ac(a2-8)Neu5Ac(a2-3)[Gal(b1-3)GalNAc(b1-4)]Gal(b1-4)Glc
# Outline: as §1
# [11] = molecular target: Neu5Ac(a2-8)Neu5Ac(a2-8)Neu5Ac(a2-3)[GalNAc(b1-4)]Gal(b1-4)Glc
# Outline: as §1
# [12] = molecular target: Neu5Ac(a2-8)Neu5Ac(a2-8)Neu5Ac(a2-8)Neu5Ac(a2-3)[GalNAc(b1-4)]Gal(b1-4)Glc
# Outline: as §1
# [13] = molecular target: Neu5Ac(a2-8)Neu5Gc(a2-3)Gal(b1-4)GlcNAc
# Outline: as §1
# [14] = molecular target: Neu5Ac(b2-6)Gal(b1-4)GlcNAc
# Outline: as §1
# Neu5Ac(b2-6)GalNAc = molecular target: Neu5Ac(b2-6)GalNAc
# Outline: as §1
# [15] = molecular target: Neu5Ac9Ac(a2-3)Gal(b1-4)GlcNAc
# Outline: as §1
# [16] = molecular target: Neu5Ac9Ac(a2-6)Gal(b1-4)GlcNAc
# Outline: as §1
# [17] = molecular target: Neu5Gc(a2-3)Gal(b1-3)GlcNAc
# Outline: as §1
# [18] = molecular target: Neu5Gc(a2-3)Gal(b1-3)[Fuc(a1-4)]GlcNAc
# Outline: as §1
# Neu5Gc(a2-3)Gal(b1-4)Glc = molecular target: Neu5Gc(a2-3)Gal(b1-4)Glc
# Outline: as §1
# [19] = molecular target: Neu5Gc(a2-3)Gal(b1-4)GlcNAc
# Outline: as §1
# [20] = molecular target: Neu5Gc(a2-3)Gal(b1-4)GlcNAc(b1-3)Gal(b1-4)GlcNAc(b1-2)Man(a1-3)[Neu5Gc(a2-3)Gal(b1-4)GlcNAc(b1-3)Gal(b1-4)GlcNAc(b1-2)Man(a1-6)]Man(b1-4)GlcNAc(b1-4)GlcNAc
# Outline: as §1
# [21] = molecular target: Neu5Gc(a2-3)Gal(b1-4)[Fuc(a1-3)]GlcNAc
# Outline: as §1
# [22] = molecular target: Neu5Gc(a2-6)Gal(b1-4)GlcNAc
# Outline: as §1
# Neu5Gc(a2-6)GalNAc = molecular target: Neu5Gc(a2-6)GalNAc
# Outline: as §1
# [23] = molecular target: Neu5Gc(a2-8)Neu5Ac(a2-3)Gal(b1-4)GlcNAc
# Outline: as §1
# [24] = molecular target: Neu5Gc(a2-8)Neu5Gc(a2-3)Gal(b1-4)GlcNAc
# Outline: as §1
# [25] = molecular target: Neu5Gc(a2-8)Neu5Gc(a2-3)Gal(b1-4)GlcNAc(b1-3)Gal(b1-4)GlcNAc
# Outline: as §1
# [26] = molecular target: Neu5Gc(a2-8)Neu5Gc(a2-6)Gal(b1-4)GlcNAc
# Outline: as §1
# [27] = molecular target: Neu5Gc(b2-6)Gal(b1-4)GlcNAc
# Outline: as §1
binder,measurement,setting,value
B1,glycan array binding signal (z-score),[1],-0.178
same,glycan array binding signal (z-score),Neu5Ac(a2-8)Neu5Ac,-0.13
same,glycan array binding signal (z-score),[2],-0.082
same,glycan array binding signal (z-score),[3],-0.103
same,glycan array binding signal (z-score),[4],2.98
same,glycan array binding signal (z-score),[5],-0.2
same,glycan array binding signal (z-score),[6],-0.144
same,glycan array binding signal (z-score),[7],-0.209
same,glycan array binding signal (z-score),[8],-0.088
same,glycan array binding signal (z-score),[9],-0.109
same,glycan array binding signal (z-score),[10],-0.227
same,glycan array binding signal (z-score),[11],-0.22
same,glycan array binding signal (z-score),[12],-0.066
same,glycan array binding signal (z-score),[13],-0.217
same,glycan array binding signal (z-score),[14],-0.257
same,glycan array binding signal (z-score),Neu5Ac(b2-6)GalNAc,1.11
same,glycan array binding signal (z-score),[15],-0.239
same,glycan array binding signal (z-score),[16],-0.222
same,glycan array binding signal (z-score),[17],-0.117
same,glycan array binding signal (z-score),[18],-0.22
same,glycan array binding signal (z-score),Neu5Gc(a2-3)Gal(b1-4)Glc,-0.084
same,glycan array binding signal (z-score),[19],-0.226
same,glycan array binding signal (z-score),[20],-0.025
same,glycan array binding signal (z-score),[21],-0.163
same,glycan array binding signal (z-score),[22],-0.214
same,glycan array binding signal (z-score),Neu5Gc(a2-6)GalNAc,-0.183
same,glycan array binding signal (z-score),[23],-0.163
same,glycan array binding signal (z-score),[24],-0.15
same,glycan array binding signal (z-score),[25],-0.054
same,glycan array binding signal (z-score),[26],-0.182
same,glycan array binding signal (z-score),[27],-0.163
